The source gives no read counts; variants with many changes may rest on few reads.
B1: LINE1-mini (parent)
chain: GGCAGAGCUCAACACAGCGUGGCAAAGUGGCUGUGGCUAGACUGCC

Variants of: B1
Assay: self-cleavage, relative activity (ratio to wild type); higher = more cleavage; in vitro, sequencing; the parent is a self-cleaving ribozyme

| Variant | self-cleavage |
| --- | --- |
| G2U G33A C45U | 0.03 |
| C3A A4G C18G G21C G30U C45U | 0.08 |
| C3A A11G C37A | 0.04 |
| G2U G21U C37U | 0.03 |
| G2U G21A U38A | 0.06 |
| G2U U38C A41U | 0.01 |
| C3A A12U C46A | 0.07 |
| C3A A6G U9A G17A G29C C31A | 0.29 |
| G2U G17C U20C A26G G36U | 0.03 |
| G2U G35A C46A | 0.01 |
| C3A A16G G17U G27A U32G U38A G40C | 0.07 |
| G2U U9G C10G G35C | 0.01 |
| C3A A11U A16G C23A | 0.03 |
| C3A A14C C42G | 0.31 |
| C3A A6U A26G | 0.46 |
| C3A A24U A26C | 1.12 |
| G2U U9G C18G G27U G33U | 0.01 |
| G2U U9A G30U | 0.09 |
| C3A A16U C18A G19C G36U | 0.49 |
| C3A A4C C10U A25U U38A | 0.04 |
| C3A A4C C31A U32C | 0.3 |

| Variant | self-cleavage |
| --- | --- |
| C3A A14U C15G | 0.05 |
| G2U G7U A11G C18G U32G | 0.01 |
| C3A A12U U20G | 0.07 |
| C3A A11U C46G | 0.04 |
| G2U G7U G22C G30A | 0.02 |
| G2U G36U C46U | 0.11 |
| G2U G5U G7U G22U G35C G44U | 0.06 |
| G2U G5U C23U G30U | 0.07 |
| C3A A12C C15A A16C | 0.04 |
| C3A A4C G22A C42A C45G | 0.07 |
| G2U U20C G36A A41G C46G | 0.01 |
| C3A A4C C10A G29U G36C U38C | 0.01 |
| C3A A12G C13G | 0.2 |
| G2U G7U G22U C45U | 0.1 |
| G2U G21A G33U | 0.07 |
| C3A A4C G17C C18U U20A G40C | 0.04 |
| C3A A6G A24U G33U | 0.14 |
| G2U U20G G33U G35A G40A | 0.01 |
| G2U U28A U32G U43A | 0.03 |
| G2U G19U G27C G40C | 0.01 |
| G2U G30A C46A | 0.04 |

| Variant | self-cleavage |
| --- | --- |
| C3A A6G C15A | 0.21 |
| G2U G21A C46A | 0.04 |
| C3A A4U U9C A11U A16C G27U | 0.03 |
| C3A A24G A41C G44U | 0.03 |
| C3A A14G A26U C45G | 0.44 |
| G2U G17C G29C | 0.03 |
| G2U G7A C31A | 0.03 |
| C3A A14C G22A C37G G40C | 0.04 |
| C3A A11U G36U A39G | 0.02 |
| G2U U9A A14U A26C U43G | 0 |
| G2U G30A G36U C37G | 0.02 |
| C3A A12U U32A U38G | 0.05 |
| G2U G30U C37A G44U | 0.02 |
| G2U G21U A25U A41C C42G | 0.01 |
| C3A A6G G29C A41C | 0.03 |
| C3A A11U G21U G27U G29C U34A | 0.02 |
| C3A A6U C15A G19C C23U C37G | 0.11 |
| G2U G21A G30U U38A | 0.16 |
| C3A A4G C23U G29A G33U | 0.26 |
| C3A A14G G22C C42A C45A | 0.48 |
| G2U G35C U43G C45A | 0.01 |

| Variant | self-cleavage |
| --- | --- |
| G2U G33U U38A | 0.02 |
| C3A A6U C8G C13A U38A C45A | 0.02 |
| C3A A14U C46A | 0.1 |
| C3A A4U A11G C46U | 0.04 |
| C3A A11U C18U G22C | 0.06 |
| G2U G5U C18A G44U | 0.01 |
| C3A A11C U28A G44C | 0.01 |
| G2U U34C G36U A39U | 0.03 |
| C3A A6U C15U | 0.45 |
| C3A A4U G40A U43A | 0.08 |
| G2U G5U G27A | 0.02 |
| G2U G7U U43C C45G | 0.14 |
| G2U G7A U20A G29C | 0.05 |
| G2U G17A G19U G35A C46U | 0.01 |
| G2U U9A G30A C46U | 0.1 |
| C3A A12U C31G U43A C46A | 0.04 |
| G2U G19U A24G A26G G27C C42G | 0.03 |
| G2U G7U G29U | 0.02 |
| C3A A11C G29U C37U | 0.03 |
| G2U G27A C45A | 0.15 |

From the RNAGym collection of RNA variant scans (doi:10.7554/elife.90254)
